Assay results reported in the supplement of paper PMC10338343.
± gives the standard deviation. Whole data set: some 6,600 sequences, median “pre-steady-state target cleavage rate” near 0.07, cut for the highest 2% near 0.72. This is a selection; strong and weak results do not stand in their true shares.

These sequences were tested on MIWI (PIWIL1) piRISC loaded with Kctd7 piRNA (30 nt) (assay: pre-steady-state target cleavage rate (min^-1); MIWI and MILI are mouse PIWI proteins and EfPiwi is from a freshwater sponge; tags in brackets are library labels; higher = faster piRNA-guided slicing of the target). Conditions: guide: Kctd7 piRNA 5'p-UGUUAAUCUCUCAGAGAAGGUGACAGUGAU; auxiliary factor: 500 nM mouse GTSF1.
Outline: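 The pre-steady-state cleavage rate was obtained by Cleave-'n-Seq with a burst-and-steady-state fit. A transcribed, DNA-blocked target RNA library (0.1 nM) was mixed with 1 nM active affinity-purified piRISC carrying one synthetic guide, with or without 500 nM GTSF1 partner protein, in HEPES–potassium acetate buffer at 33 °C for 0–8 or 0–960 min. Uncleaved targets were sequenced and normalised to depth and to weakly complementary targets, with three trials pooled and k3 capped at 0.0001 min^-1.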

Sequence	pre-steady-state target cleavage rate
UAGUGACUCACCUUCACUGAGAGAUUUUGA	0.00657 ± 0.0031
UAGUGACAGUCCUUCUUUGAGAGAUUAACA	0.00836 ± 0.0033
UAGACUGUCACCAUCUGUGAGAGAUUAACA	0.359 ± 0.023
UAGUGACUGACCUUCUCUGACAGAUUAACA	0.0548 ± 0.0096
UAGUCUGUCAGCUUCUCUGAGAGUUUAACA	0.127 ± 0.016
UUCAGACUCACCUUCUCUGAGAGAUUAAGA	0.127 ± 0.02
UAGUGAGACACCUUCUCUGAGAGUUUAACA	0.25 ± 0.046
UACACUGUCACCUUCUCUCAGACAUUAACA	0.0659 ± 0.0079
UAGAGUGUGACCUUCUCUGAGAGAUUAACA	0.625 ± 0.027
UAGUGUGUCACCUUCUCUGAGACAUUAAGA	0.0149 ± 0.0067
UAGUGUCUCACCUUCUCUGAGACAUUAACA	0.0137 ± 0.0061
UACACUGUCACCUUCUCUGAGAGAUUGAACA	0.268 ± 0.034
UAGACUGUCAGCUUCACUGAGAGAUUAACA	0.464 ± 0.022
UAGACAGUCACCUUCUCUGAGAGAUAUUGA	0.0688 ± 0.018
UAGUGACUCACUUUCUCUGAGAGAUUAACA	0.635 ± 0.031
UAGUGUGUCACCUUCUCUGAGAGACUUAACA	0.181 ± 0.023
AUCACUGUCACCUUCUCUGAAGAUUAACA	0.0504 ± 0.012
UAGUGACAGACCUUACUCUGAGAGAUUAACA	0.0198 ± 0.0041
UUCUCUGUCACGUUCUCUGAGAGAUUAACA	0.564 ± 0.026
AUCUGUGUCACCUUCUCUGAGAGAUUUUGA	0.0788 ± 0.011
UAGUGACAGACCUUUCUCUGAGAGAUUAACA	0.0379 ± 0.0079
UAGUGACACAGCUUCUCUGAGAGUUUAACA	0.0412 ± 0.0084
UAGUGACACACCAUCUCUGAGACAUUAACA	0.0487 ± 0.0088
UAGUGACAGACCUUCUGUGAGAGAUAAACA	0.0234 ± 0.0052

Sequence	pre-steady-state target cleavage rate
UAGUCUGUCUCCUUCUCUGAGAGAUAAACA	0.346 ± 0.069
UACACUGUCACCUUCUCUGAGACUUUAACA	0.0647 ± 0.017
UACAGACUCACCUUCUCUGAGAGAUUAAGA	0.165 ± 0.025
UAGUGUGUCACCUUCUCUGAGAGAUUAAUA	0.413 ± 0.054
UAGUGACAGUGCUUCUCUGAGAGAUAAAGA	< 0.0001
UACACUGUCUCCUUCUCUGAGAGAAUAACA	0.236 ± 0.035
UACACUGUCACCUUCUCUGAGAGAUUACA	0.339 ± 0.063
AUCACUGUCAGGAUCUCUGAGAGAUUAAGA	0.013 ± 0.0039
UAGUGACAGUGGAUCUCUGUCUCUAAUUGA [g12:g17:cont:t1A]	< 0.0001
UAGUGUGUCACGUUCUCUGAGAGAUAUUGA	0.00554 ± 0.0043
UAGUGACUCACCUUCUCUGACAGAAUAACA	0.0197 ± 0.0048
UAGUGACUCACGUUGUCUGAGAGAUUAACA	0.0985 ± 0.012
UAGUGACAGUGCUUCCUCUGAGAGAUUAACA	0.0616 ± 0.0068
UAGUGACACAGCCUUCUCUGAGAGAUUAACA	0.174 ± 0.016
UAGUCUGUCUCCUUCUCAGAGAGAUUAACA	0.311 ± 0.021
UAGUGUGUCAGCUUCUCUGUGAGAUUAACA	0.193 ± 0.011
UACAGUGUCACCUUCUCUGAGAGUUUAACA	0.613 ± 0.094
UAGUGAGUGACCUUCUCUGAGUGAUUAACA	0.0233 ± 0.0097
UAGUCUGACACCUACUCUGAGAGAUUAACA	0.381 ± 0.03
UUCUCUGUCACCUUCUCUCAGAGAUUAACA	0.105 ± 0.0091
UUCAGUGUCACCAUCUCUGAGAGAUUAACA	0.585 ± 0.037
UAGUGUGUCAGCUUCUCUGAGAGAUUAACA	0.561 ± 0.032
UAGUGACACACCUUCACUGAGAGAUUAAGA	0.0185 ± 0.01
UAGACUGUCACCUUCUUUGAGAGAUUAACA	0.58 ± 0.034

Sequence	pre-steady-state target cleavage rate
UAGUCUGUCUGGUUCUCUGAGAGAUUAACA	0.0485 ± 0.0058
AACACUGUCACCUUCUCUGAGAGAUUAAGA	0.189 ± 0.026
UACACUCUCACCUUCUCUCAGAGAUUAACA	0.116 ± 0.012
UAGUGACAGUCCUUCUCUGAGAGAUAAACA	0.0209 ± 0.0048
UACACUGUCACCUUCUCUGAGAGAAAUACA	0.0416 ± 0.013
AUGACUGUCACCUUCACUGAGAGAUUAACA	0.541 ± 0.032
UAGACUGUCACCUUCUCUGAGAGAUAUUGA [g6:g27:cont:t1A]	0.00602 ± 0.0037
UUCACUGACACCUUCUCUGAGAGAUUUUGA	0.164 ± 0.033
AUCACUGUCACCUUGUGUGAGAGAUUAACA	0.199 ± 0.017
UAGUGUCUCACCUUCUCUGAGAGAUUAUGA	0.0314 ± 0.0099
UACACUGUCAGGUUCUCUGAGAGAUUAUGA	0.00793 ± 0.0032
UAGUGAGUCCCCUUCUCUGAGAGAUUAACA	0.583 ± 0.049
UAGUCUGUCACCUUCUCACUGAGAUUAACA	0.00623 ± 0.003
UAGUCUGACACCUUCUCUGUGAGAUUAACA	0.161 ± 0.01
UAGUGACUCACCUUCUCUGAGAGAUUGAACA	0.307 ± 0.05
AACACAGUCACCUUCUCUGAGAGAUUAACA	0.736 ± 0.032
UUCACUGUCACCUUCUCUGAGAGUAUUAACA	0.547 ± 0.057
UAGACUGUCACCUUUUCUGAGAGAUUAACA	0.732 ± 0.034
UAGUGUGUCAUCCUUCUCUGAGAGAUUAACA	0.207 ± 0.022
UAGUGAGACACCUUCUCUGAGAGAUAAACA	0.189 ± 0.02
UAGUGUGUCACCUUCUCAGAGAGAUUUUGA	0.0712 ± 0.021
UACACUGUCACCUUCUCUGAGACAUUAUGA	0.0104 ± 0.0049
UAGUGACUCACCUUCUCUGAGAGAUUAAA	0.219 ± 0.036
UAGUGAGUCACCUUCUCUGACAGAUUUACA	0.0602 ± 0.018
